Experiments:
[1] = Antibody stability, non-reducing CE-SDS (pH 9.0); format: physicochemical
Method: (§1) The stability of h1702 and h1702DS was tested by SEC, non-reducing CE-SDS test method (pH 9.0) and IEX test method.
Samples were processed using the Beckman SDS-MW Analysis Kit. 100 μg of protein was added with a buffer solution, and heated to denature. Data was collected using PA800 capillary electrophoresis apparatus.

[2] = Chemical stability of the B7H3 antibody (40° C., LC-MS of modification sites); format: physicochemical; conditions: PBS pH 7.4, 40° C.
Method: Chemical modification after antibody preparation is one of the common reasons leading to the product stability problem, especially the high degree of deamination, oxidation or isomerization modification at some amino acids in the CDR region. Those modifications should be avoided or reduced. 500 μg of the antibody to be tested was dissolved in 500 μl of PBS (pH 7.4), and subjected to a water bath at 40° C. Samples were taken at day 0, 10, and 20 respectively for enzymatic hydrolysis experiments. 100 μg of samples were taken at different time points and dissolved in 100 μl of 0.2 M His-HCl (histidine hydrochloride buffer) and 8 M Gua-HCl (pH 6.0, citrulline hydrochloride buffer). 3 μl of 0.1 g/mL DTT (dithiothreitol) was added, and subjected to water bath at 50° C. for 1 hour. The samples were ultra-filtered twice with 0.02 M His-HCl solution (pH 6.0), and 3 μL of 0.25 mg/mL trypsin (invitrogen, CAT#25200-072) was added. The mixture was subjected to enzymolysis overnight at 37° C. in a water bath. LC-MS was carried out using Agilent 6530 Q-TOF, and potential modification sites were analyzed by mass spectrometry (the results are shown in Table 4).

[3] = Antibody stability, IEX test; format: physicochemical
Method: as §1
Waters Acquity H-Class chromatograph and Thermo MAbPac SCX-10 column were used. 50 μg of the antibody was loaded, and a linear gradient was applied, using CX-1 pH Gradient Buffer Kit as the mobile phase. Ultraviolet signal at a wavelength of 280 nm was collected.

[4] = T1/2 evaluation on SD rats; format: in vivo; conditions: SD rat, IV 3 mg/kg
Method: 4 SD rats (purchased from Shanghai JieSiJie Laboratory Animal Co., Ltd., half male and half female) were maintained in light/dark cycle adjusted at 12/12 hours, with constant temperature of 24±3° C., humidity of 50-60%, and free access to food and water. On the day of the experiment, SD rats were injected with the test agent B7H3 antibody/ADC respectively into tail vein at a dose of 3 mg/kg and an injection volume of 5 ml/kg.
The time point for blood collection: On the first day of administration, blood was taken from ocular fundus vein at 5 min, 8 h, 24 h (Day 2), Day 3, Day 5, Day 8, Day 11 and Day 15 after administration, each 200 μL (equivalent to 100 μL of serum). The collected blood samples were left to stand at room temperature for half an hour until coagulation, and then centrifuged at 10,000×g at 4° C. for 10 minutes. The supernatant was collected and immediately stored at −80° C.
The B7H3 antibody concentration in the serum was measured by ELISA, and PK analysis was performed.

U87MG cells = experiment: In vitro endocytosis test; format: cell-based, human; conditions: 37° C., 0-120 minutes
Method: In this experiment, the endocytosis effect of the antibody was evaluated based on the intensity of fluorescence signal of the intracellular antibody. The B7-H3 antibody and APC anti-human IgG Fc (Biolegend, 409306) were mixed at a molar ratio of 1:2 and incubated on ice for 15 minutes. The antibody mixture was incubated with 2×10^5 U87MG cells (human brain astroblastoma, Chinese Academy of Sciences cell bank, Catalog #TCHu138) on ice for 30 minutes, and excess antibody was removed by washing. The cells were transferred to a 37° C. prewarmed medium, and incubated at 37° C. for 0, 15, 30, 60 and 120 minutes respectively. The cells were centrifuged and resuspended in the antibody elution solution (0.05M glycine, 0.1M NaCl, pH 2.45). After incubating for 7 minutes at room temperature, the antibody elution solution was removed by washing, and the intracellular fluorescence signal was read using BD Verse (results shown in FIG. 1).

[5] = Antibody stability, SEC test; format: physicochemical
Method: as §1
SEC test: Waters e2695 chromatograph and Xbridge BEH 200A SEC column were used. 50 μg of antibody was loaded, and eluted with PBS mobile phase in constant gradient.

B1: h1702: fully humanized anti-B7H3 antibody, heavy chain SEQ ID NO: 14 and light chain SEQ ID NO: 15 (antibody)
heavy: QVQLVQSGGGVVQPGTSLRLSCAASGFIFSSSAMHWVRQAPGKGLEWVAVISYDGSNKYYVDSVKGRFTISRDNSKNTLYLQMNSLRAEDTAVYYCARSARLYASFDYWGQGALVTVSS[human IgG1 constant region not listed]
light: QTVVTQEPSFSVSPGGTVTLTCGLSSGSVSTSHYPSWYQQTPGQAPRMLIYNTNTRSSGVPDRFSGSILGNKAALTITGAQADDESDYYCAIHVDRDIWVFGGGTKLTVLGQPKANPTVTLFPPSSEELQANKATLVCLISDFYPGAVTVAWKADGSPVKAGVETTKPSKQSNNKYAASSYLSLTPEQWKSHRSYSCQVTHEGSTVEKTVAPTECS
modifications: Synthetic Sequence_Heavy chain (IgG1) amino acid sequence of 1702; Synthetic Sequence_Light chain amino acid sequence of 1702
- CE-SDS (pH9.0) [1]: 71.21%
- HC M34/oxidation, Day 0 ([2]; Day 0): 3.52%
- HC M83/oxidation, Day 0 ([2]; Day 0): 0.98%
- LC M48/oxidation, Day 0 ([2]; Day 0): 2.82%
- HC M34/oxidation, Day 10 ([2]; Day 10): 3.46%
- HC M83/oxidation, Day 10 ([2]; Day 10): 1.01%
- LC M48/oxidation, Day 10 ([2]; Day 10): 2.9%
- HC M34/oxidation, Day 20 ([2]; Day 20): 3.38%
- HC M83/oxidation, Day 20 ([2]; Day 20): 0.01%
- LC M48/oxidation, Day 20 ([2]; Day 20): 2.83%
- tendency towards deamidation, oxidation or heterogeneity ([2]; day 0, 10, 20): no significantly increased tendency towards deamidation, oxidation or heterogeneity
- IEX [3]: 40.5%
- half-life in rats [4]: ~185 h
- endocytosis effect (intracellular fluorescence signal) (U87MG cells): efficiently endocytosed into cells
- SEC [5]: 100%

Reference: patent US12377163B2, “Anti-B7H3 antibody-exatecan analog conjugate and medicinal use thereof” (JIANGSU HANSOH PHARMACEUTICAL GROUP CO., LTD, priority 2018, dated 2025)
